Measured values published in article PMC4060991, “The Human Orphan Nuclear Receptor Tailless (TLX, NR2E1) Is Druggable” (PLoS ONE, 2014).

Biological target: the molecule itself
Assay: AUC; sedimentation equilibrium, 4 °C, 10 µM TLX LBD, three rotor speeds (11,000, 18,000, 22,000 r.p.m.), 20 mM Tris-HCl, 150 mM NaCl, 5 mM DTT, 10% glycerol, 1% DMSO, 2 mM CHAPS, pH 8.0; global fit, monomer-dimer equilibrium (dimer to monomers)

B1: human TLX ligand binding domain (TLX LBD, […]) (domain or fragment)
chain: not shown
notes: cloned into pET-46 Ek/LIC with an N-terminal His6-tag followed by a TEV protease cleavage site; on SDS-PAGE the protein runs at 25 kDa; also called Tailless; NR2E1; source: E. coli BL21 (DE3) star, purified (Ni2+-NTA, size exclusion chromatography on Superdex 200)
  Kd: 10 µM
  stoichiometry N: 2
